From PubChem BioAssay AID887 (National Center for Advancing Translational Sciences (NCATS), 2007)
In all, about 74,000 compounds went through this assay and about 1,100 (1.5%) were called active. Inconclusive means that the source gave no clear call. Such entries were picked first, then a sample of the others. Calls come from the whole dose curve; as a rule, active = well fitted inhibition curve with a large enough effect; inconclusive = small, poorly fitted or top-dose-only effect; inactive = no such curve, though single readings can be large or run the other way. Potencies of inconclusive entries are left out as doubtful fits.

What follows are compounds tested against Polyunsaturated fatty acid lipoxygenase ALOX15 (Homo sapiens) (UniProt P16050) (assay: qHTS Assay for Inhibitors of 15-hLO (15-human lipoxygenase)). Conditions: purified 15hLO-1, xylenol orange hydroperoxide absorbance; activity change, negative = inhibition: at 57.1 µM (top of the series) unless noted.
UniProt P16050, sequence (P16050 whole entry, looked up): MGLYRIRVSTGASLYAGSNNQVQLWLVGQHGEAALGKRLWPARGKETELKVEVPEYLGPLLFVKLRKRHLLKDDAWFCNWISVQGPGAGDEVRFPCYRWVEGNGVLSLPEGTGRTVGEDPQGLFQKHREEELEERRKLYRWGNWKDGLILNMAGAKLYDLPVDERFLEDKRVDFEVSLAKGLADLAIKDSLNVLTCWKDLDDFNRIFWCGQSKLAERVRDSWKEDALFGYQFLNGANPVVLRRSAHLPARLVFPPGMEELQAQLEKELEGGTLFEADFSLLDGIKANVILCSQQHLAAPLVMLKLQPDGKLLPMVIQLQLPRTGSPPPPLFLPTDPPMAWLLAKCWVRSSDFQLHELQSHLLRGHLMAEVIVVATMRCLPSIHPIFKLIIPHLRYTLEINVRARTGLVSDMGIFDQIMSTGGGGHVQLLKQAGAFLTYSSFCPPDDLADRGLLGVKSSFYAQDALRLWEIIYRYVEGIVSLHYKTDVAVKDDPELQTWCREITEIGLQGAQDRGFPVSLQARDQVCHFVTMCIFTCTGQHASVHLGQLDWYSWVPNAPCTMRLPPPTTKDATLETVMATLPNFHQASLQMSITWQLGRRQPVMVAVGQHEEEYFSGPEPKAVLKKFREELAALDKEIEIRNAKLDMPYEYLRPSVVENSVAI
Outline: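 40 nM 15hLO-1 + cpd, 15 min RT; start w/ 50 uM AA (final), 6 min RT; stop/detect w/ 200 uM XO + 300 uM Fe(II) in 50 mM H2SO4, 30 min; A573/A405. Buffer 25 mM Hepes pH 7.5, 0.01% Triton X-100. No-enzyme wells as negative control.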
% is set by controls: 0 for no effect and ±100 for the full control effect; potency is the fitted concentration of half-maximal effect; tags give direction and shape of the fitted curve.
Note: nearly all actives have a fitted effect of over 55% in size.

Row | SMILES | activity change, negative = inhibition | Potency
1 | Cc1nc(NCC2CCCO2)c2oc3ccccc3c2n1 (stereo unspecified) | inactive: -15.8% | 
2 | Cc1cc(C)n(CC(=O)NCc2cc(-c3nn(C)c(=O)c4ccccc34)ccc2C)n1 |  | inconclusive [inhibitor, single point]
3 | CCOc1ccc(-n2cc(C(=O)N3CCCCCC3)c3cc(OC)c(OC)cc3c2=O)cc1 | inactive: 5.69% | 
4 | CC(C(=O)N1CCOCC1)N1c2cccc3cccc(c23)S1(=O)=O (stereo unspecified) |  | inconclusive [inhibitor, full curve, poor fit]
5 | COc1cccc2sc(N)nc12 | inactive: -9.57% | 
6 | CCCCNC(=O)c1ccc2nc(-c3ccco3)c(-c3ccco3)nc2c1 |  | active: 5.01 µM
7 | O=c1cc(O)cc(/C=C\c2ccc(O)c(O)c2)o1 |  | active: 0.794 µM
8 | CC(=O)c1c(NCc2ccccc2)nc(=O)n(-c2ccccc2)c1C |  | inconclusive [inhibitor, partial curve]
9 | COC(=O)c1ccc(CSc2ccc3nnc(-c4cccc(F)c4)n3n2)o1 |  | inconclusive [inhibitor, partial curve]
10 | COc1ccc(CN2C(=O)c3cccnc3C2Nc2cc(Cl)c(OC)cc2OC)cc1 (stereo unspecified) |  | inconclusive [inhibitor, single point]
11 | Oc1c(Cl)cc(Cl)c2c1NCCC2 |  | active: 1.58 µM
12 | COc1ccc(S(=O)(=O)N2CCCN(CC(=O)C(C)(C)C)CC2)cc1 |  | inconclusive [inhibitor, single point]
13 | O=C(CSc1nnc(-c2ccccc2)o1)c1nnc(-c2ccccc2)o1 |  | active: 20 µM
14 | CCN(CC)CCCC(C)NC(=O)c1ccc(Cc2nc3ccccc3[nH]2)cc1 (stereo unspecified) | inactive: 1.76% | 
15 | COc1cc(NC(=O)NCCN2CCN(c3ccc(Cl)cc3)CC2)ccc1C |  | inconclusive [inhibitor, single point]
16 | O=C(CNC(=O)c1ccco1)OCC(=O)c1ccc2c(c1)CCCC2 | inactive: -13.1% | 
17 | O=C1CCc2cc(S(=O)(=O)N3CCCC3C(=O)N3CCN(c4ccccc4)CC3)ccc2N1 (stereo unspecified) |  | inconclusive [inhibitor, full curve, poor fit]
18 | CCOC(=O)N1CCN(C(=O)Cn2ncc3ccccc32)CC1 | inactive: 3.65% | 
19 | COc1ccc(-c2c(NC(C)=O)n(C)c3ccccc3c2=O)cc1 | inactive: -7.8% | 
20 | O=C1c2c(O)cccc2Cc2cccc(O)c21 |  | inconclusive [inhibitor, full curve]
21 | O=C(Cc1ccsc1-c1ccccc1)NO |  | inconclusive [inhibitor, partial curve]
22 | COc1cc2c(cc1OC)C(C(=O)Nc1cccc(C)n1)C(c1cccnc1)N(C)C2=O (stereo unspecified) |  | inconclusive [inhibitor, full curve, poor fit]
23 | COc1ccc(Cl)cc1-c1nc(-c2ccc(NC(=O)c3ccncc3)cc2)no1 |  | inconclusive [inhibitor, partial curve]
24 | c1ncc(-c2ccoc2)c(NC2CC2)n1 |  | inconclusive [inhibitor, partial curve]
25 | CCOCCN(C=O)c1cccc(OC)c1 |  | inconclusive [inhibitor, single point]
26 | CCCC(c1nnnn1Cc1ccco1)N1CCN(C2CCCC2)CC1 (stereo unspecified) | inactive: -45.8% | 

Row | SMILES | activity change, negative = inhibition | Potency
27 | CCOc1ccc2nc(NC(=O)Nc3cccs3)sc2c1 |  | inconclusive [inhibitor, single point]
28 | Cc1cnc(CNc2ccnc(-c3ccccc3Cl)n2)cn1 | inactive: -0.937% | 
29 | CCOC(=O)c1sc(=S)n(-c2ccc(F)c(F)c2)c1N |  | inconclusive [inhibitor, single point]
30 | Cc1cc2c(cc(C(=O)NCc3cccnc3)n2Cc2ccc(Cl)cc2)o1 |  | inconclusive [inhibitor, partial curve]
31 | c1cncc(-c2nn3c(Cn4nnc5ccccc54)nnc3s2)c1 |  | inconclusive [inhibitor, single point]
32 | O=S(=O)(O)c1ccccc1 | inactive: -16.6% | 
33 | CC(C)(C)c1ccc(OCc2nc(-c3ccccn3)no2)c(Br)c1 | inactive: -3.85% | 
34 | O=C(CCc1nc(-c2ccccc2F)no1)Nc1ccc(Oc2ccccc2)cc1 |  | inconclusive [inhibitor, partial curve]
35 | CC(=O)NCCNc1ncnc2ccc(-c3ccccc3C#N)cc12 |  | inconclusive [inhibitor, single point]
36 | Cc1cc(NO)nc(-c2ccc(Br)cc2)n1 |  | active: 15.8 µM
37 | C=CCN1CCc2c(cc(O)c(O)c2Cl)[C@H](c2ccccc2)C1 |  | inconclusive [inhibitor, partial curve]
38 | Cn1ccnc1SC(=O)N1c2ccccc2Sc2ccccc21 |  | inconclusive [inhibitor, single point]
39 | CC(C)NCC(O)Cn1c2c(c3ccccc31)CCc1c-2cnn1-c1ccccc1 (stereo unspecified) |  | active: 12.6 µM
40 | CC(C)=CCNc1ncnc2c1c(C#N)cn2[C@H]1O[C@@H](CO)[C@@H](O)[C@@H]1O | inactive: -3.16% [at 11.4 µM] | 
41 | CCCc1cc(C(N)=O)c(NC(=O)c2ccoc2C)s1 |  | inconclusive [inhibitor, partial curve]
42 | O=C(c1ccncc1)N1CCC[C@@]2(CCN(Cc3ccccc3)C2)C1 | inactive: -8.63% | 
43 | NC/C(=N\O)c1ccc(Cl)cc1Cl |  | inconclusive [inhibitor, partial curve]
44 | CSc1ccc(C2NC(=O)c3c(sc4c3CCN(C)C4)N2)cc1 (stereo unspecified) |  | inconclusive [inhibitor, partial curve]
45 | COc1ccc(NC(=O)N2CCCC3(CCN(C(C)=O)CC3)C2)cc1 | inactive: 2.07% | 
46 | CNc1nc(N2CCc3ccccc32)ncc1F |  | inconclusive [inhibitor, single point]
47 | COc1cc(Cl)c(C)cc1NC(=O)CSc1nnc(-c2ccco2)n1CC(C)C |  | inconclusive [inhibitor, single point]
48 | Cc1cc(NC(=O)CN2CCN(c3ccccc3F)CC2)nc2c1c(=O)oc1ccccc12 |  | inconclusive [inhibitor, partial curve]
49 | CCCCOc1ccccc1C1C(C(=O)OC)=CN(CC)C=C1C(=O)OC |  | inconclusive [inhibitor, single point]
50 | Cn1c(/N=C/c2ccc3c(c2)OCO3)nc2ccccc21 | inactive: -6.68% | 
51 | CC(C)(C)C1=C(C#N)C(c2ccc3c(c2)OCO3)C(C#N)=C(N)O1 (stereo unspecified) |  | inconclusive [inhibitor, single point]
52 | CCCNC(=O)C1CCN(S(=O)(=O)c2ccc(Br)cc2)CC1 | inactive: 10.7% | 

Row | SMILES | activity change, negative = inhibition | Potency
53 | O=C(c1ccncc1)N1CCC2(CCCN(Cc3nccs3)C2)CC1 |  | active: 0.199 µM
54 | COc1ccc(C(=O)N2CCN(C(=O)c3ccco3)CC2)cc1 | inactive: 8.22% | 
55 | O=C1CCCC=C1[C@H](O)c1ccc([N+](=O)[O-])cc1 | inactive: 15.9% [at 11.4 µM] | 
56 | O=C(c1cccc(F)c1)N1CCC2(CC1)CCN(c1cccc(-c3ccccc3)c1)CC2 | inactive: -9.18% | 
57 | Cc1ccc2c(C(=O)CN3CCCCC3CCO)c(C)[nH]c2c1 (stereo unspecified) |  | inconclusive [inhibitor, single point]
58 | CCC(c1nnnn1Cc1ccccc1)N(Cc1ccco1)Cc1cc2cc(OC)ccc2[nH]c1=O (stereo unspecified) |  | inconclusive [inhibitor, single point]
59 | O=C(CN1C(=O)c2ccccc2S1(=O)=O)NCCSc1ccccc1 | inactive: -0.403% | 
60 | CC1(C)[C@@H]2CC[C@@](C)(C2)[C@H]1OC(=O)c1ccccc1C(=O)O | inactive: 9.76% [at 11.4 µM] | 
61 | CC1CCC2C(=O)N3C(CCC(C)C3c3ccccc3Br)C(=O)N2C1c1ccc(C#CCN(C)C)cc1 (stereo unspecified) | inactive: -5.25% [at 11.4 µM] | 
62 | CCOc1ccc(CN2CCC(C(=O)N3CCN(c4ccccc4F)CC3)CC2)cc1OC |  | inconclusive [inhibitor, partial curve, poor fit]
63 | O=c1[nH]c2cc3c(cc2cc1CN(Cc1cccs1)Cc1nnnn1Cc1ccco1)OCCO3 |  | active: 10 µM
64 | O=C1C(O)CC2c3ccccc3CC3(CCCC3)N12 (stereo unspecified) |  | inconclusive [inhibitor, partial curve]
65 | O=c1[nH]c(-c2ccncc2)nc2ccccc12 |  | inconclusive [inhibitor, partial curve]
66 | CN1/C(=C/C=N/n2cnnc2)C(C)(C)c2ccccc21 |  | active: 25.1 µM
67 | Oc1ccc(N=Cc2ccc(O)c(O)c2)cc1 |  | active: 12.6 µM
68 | COc1ccc(N2CCN(C(=O)c3ccc(NS(=O)(=O)c4cccc(F)c4)cc3)CC2)cc1 |  | inconclusive [inhibitor, partial curve]
69 | CC(C)Nc1oc(-c2cccc3ccccc23)nc1C#N |  | active: 3.98 µM
70 | C=CCn1c(SCC(=O)c2ccc(OC)cc2)nnc1-c1cc2cccc(OC)c2o1 | inactive: -8.09% | 
71 | COc1ccc(O[C@H]2C=C[C@@H](c3ccccc3)O[C@H]2CO/N=C2/[C@H]3O[C@@H]3[C@@H](O)[C@H]3[C@H]2CCn2c(=O)n(-c4ccccc4)c(=O)n23)cc1 | inactive: -3.23% [at 11.4 µM] | 
72 | Cc1cccc2sc(NC(=O)CN(C)S(=O)(=O)c3ccc(Br)s3)nc12 |  | inconclusive [inhibitor, partial curve]
73 | CCCCc1cc(=O)oc2cc(C)c(CN3CCCC3)c(O)c12 |  | active: 12.6 µM
74 | CCOC(=O)c1c(-c2ccc(C)o2)csc1NC(=O)CSc1nnc(C)s1 | inactive: -28.6% | 
75 | CCOc1ccc(OCc2cccc(C(=O)N3CCCC3)c2)cc1 | inactive: 11.2% | 
76 | CCc1nc(N2CCN(C(=O)c3ccco3)CC2)c2oc3ccccc3c2n1 |  | inconclusive [inhibitor, single point]
